Measured values reported in paper PMC8606595, “Chimeric Antigen Receptor T Cells With Modified Interleukin-13 Preferentially Recognize IL13Rα2 and Suppress Malignant Glioma: A Preclinical Study” (Frontiers in Immunology, 2021).

Columns and labels:
Human IL13Rα1 = Human IL13Rα1 (human, UniProt P78552 22-427); experiment: SPR; Biacore T200; human IL13Rα1 (2,800 RU) or IL13Rα2 (3,100 RU) amine-coupled to CM5 chips in 10 mM sodium acetate pH 4.5; IL13-Fc proteins injected in twofold serial dilutions at constant flow (30 ml/min as printed); association 180 s, dissociation 600 s; regeneration 10 mM glycine pH 2.0; 1:1 fitting model; conditions: both partners purified
Sequence of Human IL13Rα1 (P78552 22-427): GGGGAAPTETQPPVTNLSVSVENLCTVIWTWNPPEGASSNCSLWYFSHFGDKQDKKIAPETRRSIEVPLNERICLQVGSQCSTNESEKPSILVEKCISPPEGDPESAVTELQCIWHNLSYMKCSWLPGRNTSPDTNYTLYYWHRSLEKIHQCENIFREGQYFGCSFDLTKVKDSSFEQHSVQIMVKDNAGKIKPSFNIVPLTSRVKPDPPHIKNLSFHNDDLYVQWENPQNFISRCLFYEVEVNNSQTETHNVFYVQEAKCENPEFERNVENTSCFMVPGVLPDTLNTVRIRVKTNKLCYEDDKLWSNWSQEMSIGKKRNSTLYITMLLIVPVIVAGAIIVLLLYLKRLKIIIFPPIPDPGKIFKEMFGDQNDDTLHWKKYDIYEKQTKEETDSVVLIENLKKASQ

Human IL13Rα2 = Human IL13Rα2 (human, UniProt Q14627 27-380); experiment: as above; conditions: both partners purified
Sequence of Human IL13Rα2 (Q14627 27-380): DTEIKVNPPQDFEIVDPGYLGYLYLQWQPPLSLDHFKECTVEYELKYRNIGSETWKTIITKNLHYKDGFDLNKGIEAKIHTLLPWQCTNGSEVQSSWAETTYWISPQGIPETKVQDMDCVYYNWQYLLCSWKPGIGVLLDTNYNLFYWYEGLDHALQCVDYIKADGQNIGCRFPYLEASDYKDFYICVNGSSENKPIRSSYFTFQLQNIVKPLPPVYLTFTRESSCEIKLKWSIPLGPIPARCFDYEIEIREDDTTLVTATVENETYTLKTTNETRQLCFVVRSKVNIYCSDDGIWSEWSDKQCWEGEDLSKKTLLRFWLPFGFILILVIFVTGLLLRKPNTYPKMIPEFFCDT

Kd (Human IL13Rα1): 19.7 nM
koff (Human IL13Rα1): 0.000632 s⁻¹
kon (Human IL13Rα1): 32000 M⁻¹ s⁻¹
Kd (Human IL13Rα2): 0.585 nM
koff (Human IL13Rα2): 1.77e-05 s⁻¹
kon (Human IL13Rα2): 30300 M⁻¹ s⁻¹
B1: WT-IL13 fused with human Fc (Fc fusion)
chain: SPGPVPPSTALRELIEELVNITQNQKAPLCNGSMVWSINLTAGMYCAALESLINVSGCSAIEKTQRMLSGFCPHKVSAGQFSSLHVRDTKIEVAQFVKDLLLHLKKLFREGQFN
modifications: Fused to human Fc (carrier left out; probably dimeric through Fc). Start taken from the paper's numbering, where residue 1 = S33. / Amine-coupled to CM5 chip; extracellular domain assumed
